Over roughly 33,000 sequences, “E-score (-0.5 to 0.5)” has its median near -0.012; the highest 2% begin near 0.27. The list shows a part of the results.
The sequences below were run against T1, Vhr1 (UniProt P40522) (assay: PBM E-score (8-mer binding enrichment) (E-score (-0.5 to 0.5)); higher = stronger / more preferred TF binding; most listed sequences are background and not binding sites). Settings: protein concentration: 200 nM; construct: GST-full length.
T1 sequence: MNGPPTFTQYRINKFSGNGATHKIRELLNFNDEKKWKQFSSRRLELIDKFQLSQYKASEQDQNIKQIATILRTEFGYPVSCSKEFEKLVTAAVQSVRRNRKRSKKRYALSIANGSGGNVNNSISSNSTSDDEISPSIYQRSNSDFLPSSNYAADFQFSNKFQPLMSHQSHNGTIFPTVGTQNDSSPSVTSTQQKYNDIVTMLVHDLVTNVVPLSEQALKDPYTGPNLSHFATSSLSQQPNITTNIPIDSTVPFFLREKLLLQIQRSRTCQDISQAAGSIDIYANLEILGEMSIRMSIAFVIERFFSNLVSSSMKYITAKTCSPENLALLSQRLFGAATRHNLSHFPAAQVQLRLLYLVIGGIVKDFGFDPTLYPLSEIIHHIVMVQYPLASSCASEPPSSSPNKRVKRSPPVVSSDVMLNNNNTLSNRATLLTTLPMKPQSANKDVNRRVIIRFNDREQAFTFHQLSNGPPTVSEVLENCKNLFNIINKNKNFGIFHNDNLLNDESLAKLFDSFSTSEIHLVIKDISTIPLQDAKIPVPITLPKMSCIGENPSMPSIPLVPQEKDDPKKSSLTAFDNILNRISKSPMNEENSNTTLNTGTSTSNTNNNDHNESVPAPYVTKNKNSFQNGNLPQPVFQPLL
Procedure, shortened: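 Full-length yeast transcription factors or their DNA-binding domains, GST-tagged and expressed with PURExpress, were applied at about 100-200 nM to universal all-10-mer Agilent arrays. These arrays had been made double-stranded by primer extension on fresh or once-stripped slides. Detection used fluorescent anti-GST, normalisation used masliner, and E-scores for ungapped eight-base words pooled with reverse complements came from the Universal PBM Analysis Suite.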

Row | Sequence | PBM E-score
1 | AAACTGAT | 0.0559
2 | GTGCATGA | 0.0825
3 | ACCATAGA | -0.0566
4 | CTCATCGC | 0.239
5 | CGTCGATC | 0.059
6 | CTAACAAA | 0.097
7 | TACACACA | 0.268
8 | AACCAGTA | 0.0285
9 | AAGTCTTA | -0.153
10 | GTAACAAC | -0.00644
11 | GCTAACAA | -0.269
12 | GGCGTGCA | -0.213
13 | CCATGCTA | 0.0214
14 | ATCTGTCG | 0.0175
15 | ATCCCTTA | -0.132
16 | TCTTCAAA | -0.191
17 | GCATAGTA | 0.143
18 | AAGACGTG | -0.092
19 | AGATTGAT | -0.0242
20 | GCCGTCTA | 0.00852
21 | CATGTTGA | 0.278
22 | CTCAGTTC | -0.211

Row | Sequence | PBM E-score
23 | CACACCTG | 0.207
24 | ATAATGAG | -0.0752
25 | GCCTACCA | -0.124
26 | AGGCACGG | -0.0807
27 | TAAGCGCA | -0.255
28 | ACCAATGG | 0.0488
29 | CACCCACC | 0.317
30 | CCCCAGAA | 0.0534
31 | AAGGTATA | -0.0777
32 | ATCCGCGA | 0.054
33 | GAGTGCCC | -0.0963
34 | GGTTCACA | -0.0324
35 | TAAGTTGA | -0.039
36 | CCCAGAGC | -0.164
37 | GGCATACA | -0.0056
38 | ACAGTCAC | 0.242
39 | ACTTCCCT | 0.047
40 | CAGGCGTA | 0.0631
41 | ACCAGCAC | 0.0377
42 | CCAAGCCG | -0.0219
43 | GGCGATGA | 0.18
44 | AGAGCTCT | -0.414

Row | Sequence | PBM E-score
45 | AGCCCGAG | -0.0236
46 | CGGCCAGC | 0.0279
47 | TATGGCCA | -0.103
48 | AGTCGACA | 0.197
49 | CTTAACTC | 0.0269
50 | CCTCGAAA | -0.0369
51 | AAGGAGTA | 0.0394
52 | CGACGTGC | -0.0912
53 | ATCGTCTA | 0.0131
54 | CGAACTTA | -0.156
55 | AATTGTCG | 0.00109
56 | CGTTTTCC | -0.224
57 | AAGCGTGC | -0.0645
58 | TCTTTGCA | -0.116
59 | CATGTAGC | 0.0159
60 | CCGCAGAA | -0.17
61 | ATGACCCG | 0.0608
62 | GCATACGA | 0.0994
63 | ATTTATGG | 0.0625
64 | GGAACAGA | 0.0035
65 | CTGCCTAA | -0.0481
66 | CTCAGGTC | -0.0841

Row | Sequence | PBM E-score
67 | GCCACCAC | -0.0307
68 | CTCAACCC | 0.00367
69 | CACTTGCC | -0.145
70 | CATGACCC | 0.256
71 | CGACGCAC | -0.0141
72 | GATGGACC | -0.00355
73 | AGCCTATG | -0.217
74 | GTTCTCAA | -0.0837
75 | ACTACAAG | -0.00586
76 | ACTTCGCG | 0.00814
77 | CGTAGCAG | -0.142
78 | GGACTTCA | -0.126
79 | ACTTGGCA | -0.289
80 | CAGCTCCG | 0.139
81 | CTCTAACC | -0.0591
82 | AACTATAA | 0.0887
83 | TAAGCCTA | -0.259
84 | CTTCTAAC | -0.258
85 | GACATGAA | -0.0428
86 | CGCTTTCA | -0.18
87 | CGCGCACG | 0.102
88 | CTACAAGA | -0.136

Row | Sequence | PBM E-score
89 | CGTCTGTC | -0.0216
90 | AATACTCG | 0.1
91 | ACCATTCT | -0.107
92 | CACCCTGA | 0.245
93 | GACAGGAA | -0.0881
94 | GATGGCCA | -0.166
95 | ACTCCCAC | 0.105
96 | GTGCGTTA | -0.0829
97 | TGATACAA | 0.178
98 | AACGAGCT | 0.0698
99 | AAACCTTC | -0.165
100 | AGTGGAAG | -0.212
101 | ATGAACTG | 0.0424
102 | CCCGACTC | 0.426
103 | GATTGTTA | 0.0785
104 | CCAGTAGC | 0.113
105 | CCTCAGCG | -0.142
106 | TAACTACA | 0.0788
107 | CAAAACAC | -0.0791
108 | CACCCTCC | 0.276
109 | CGATCCGA | 0.155

— the supplement of paper PMC3334620
